Hit rate of the full screen: of about 50,000 compounds, about 800 (1.6%) showed an effect of 50% or more. The list shows a part of the results.

For the experiment, the target named is Bcl-2-like protein 10 (Homo sapiens) (UniProt Q9HD36). The experiment in a line: TR3 peptide-Bcl-B binding displacers, biochemical primary FP assay, phenotype converters (AID 1240).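 Also: 0% = Bcl-B with tracer peptide and DMSO and 100% = tracer peptide lacking Bcl-B.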 As to conditions: GST-Bcl-B / FITC-TR3 peptide fluorescence polarization; stronger effect = higher value; compound at 3.75 mg/L.
Chain of UniProt Q9HD36 (Q9HD36 whole entry, looked up): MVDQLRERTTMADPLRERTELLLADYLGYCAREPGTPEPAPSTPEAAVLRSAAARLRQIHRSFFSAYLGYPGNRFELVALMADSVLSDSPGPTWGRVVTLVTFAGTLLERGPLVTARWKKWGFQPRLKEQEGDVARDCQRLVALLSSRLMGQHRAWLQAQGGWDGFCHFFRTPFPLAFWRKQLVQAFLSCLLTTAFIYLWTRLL
For `CCCOc1ccc(N/C=C/C(=O)c2ccc(Br)cc2)cc1`, the displacement was -8.3%.
On to `COc1ccc(C(=O)NC(C)Cc2ccccc2)cc1OC` (stereo unspecified), for which the displacement is -9.3%.
For `Nc1ccccc1-c1nc2ccccc2c2nc3ccccc3n12`, the displacement is -5.9%.
The same measure for `O=C(/C=C/c1cccc2ccccc12)c1ccncc1`: -6.2%.
The same measure for `Cc1cc(/C=C2\SC(=S)NC2=O)c(C)n1-c1cccc([N+](=O)[O-])c1`: 7.1%.
Consider `COc1cc(C(=O)NN2C(=O)/C(=C/c3ccc(N(C)C)cc3)SC2=S)ccc1O`, for which the displacement is -56.7%.
Turning to `CCC(C)NC(=O)c1c(Cl)ccc(Cl)c1OC` (stereo unspecified), the displacement is -2.8%.
Turning to `O=C/C(=C\Nc1c2ccccc2nc2ccccc12)c1nc2cc(Cl)ccc2o1`, the displacement amounted to 11.1%.
Regarding `C#CCOc1ccc(/C=C2\C(=O)NC(=O)N(c3ccc(Cl)cc3)C2=O)cc1`, the displacement turned out to be 0%.
The same measure for `Cc1onc(-c2c(F)cccc2Cl)c1C(=O)NCc1ccccn1`: -5.5%; for `Cc1ccc(-c2cc(C(=O)N/N=C/c3cccs3)[nH]n2)cc1`: -10.1%; for `Oc1ccccc1C(=S)N1N=C(c2ccccc2)CC1(O)C(F)(F)F` (stereo unspecified): 21.7%.
For `O=C(Nc1nc(-c2ccc(Cl)cc2)cs1)C(F)(F)F`, the displacement came out at 14%.
The same measure for `CCOC(=O)c1ccc(NC(=O)C2CC(=O)N(c3ccc(Br)cc3)C2)cc1` (stereo unspecified): -2.3%; for `CN(C(=O)c1ccc(C(=O)N(C)c2ccc(O)cc2)cc1)c1ccc(O)cc1`: 5.7%; for `CC(=O)CCc1oc2ccccc2c1-c1ccc(C)o1`: -3.7%.
In the case of `CN1C(=O)/C(=C\c2ccc(OCc3cccc4ccccc34)cc2)SC1=S`, the displacement was -0.8%.
`CC(=O)Oc1ccccc1-c1nc2s/c(=C/c3ccco3)c(=O)n2n1`: the displacement came out at 13.1%.
The result for `COc1cc(C2C(C(C)=O)=C(O)C(=O)N2CCN(C)C)ccc1O` (stereo unspecified) reads -6.1%; that for `O=C(CSc1nc(-c2ccccc2)c(-c2ccccc2)o1)Nc1nccs1`, 106%.
The same measure for `CCC1CCc2c(sc(NC(=O)c3cnccn3)c2C(N)=O)C1` (stereo unspecified): -16.3%.
`CCOC(=O)Cc1nnc(NCc2ccccc2)c2ccccc12`: the displacement amounted to 3%.
Consider `O=C(Cc1ccccc1)Nc1ccccc1C(=O)N1CCN(Cc2ccccc2)CC1`, for which the displacement is 4.8%.
For `O=c1[nH]cnc2c1cnn2CCOc1ccccc1`, the displacement is -0.6%.
Take `Cc1ccc(NC(=O)c2cccc(C)c2)nc1`: the displacement was -1.3%.
For `CC(=O)Nc1ncc(Cc2ccc(F)cc2)s1`, the displacement is 6.6%.
On to `COc1cc(C(C)(C)C)cc(Br)c1O`, for which the displacement is 2%.
In the case of `COc1ccc(-n2c(CN3C(=O)c4ccccc4C3=O)nc3ccccc3c2=O)cc1`, the displacement is -3.7%.
The result for `COc1ccc(CC(=O)Nc2cccc(NC(=O)c3cccc(Cl)c3)c2)cc1OC` reads -0.7%; that for `COc1cccc(OCCOc2ccc(/C=C3/SC(=S)N(c4ccccc4)C3=O)cc2)c1`, 1.9%.
The same measure for `CC(=O)Oc1ccc(C(=O)Nc2ccc(C)cc2C(=O)O)cc1`: 7%; for `O=C(NCCO)C(=O)NCCc1ccccc1`: 7.8%; for `Cc1ccc2nc(NCc3ccccc3)nc(-c3ccccc3)c2c1`: -0.2%.
The result for `CCOc1cc(/C=C2/SC(=S)N(C)C2=O)ccc1OCc1cccc2ccccc12` reads -6.7%; that for `C(=N\Nc1nc(N2CCOCC2)nc(N2CCOCC2)n1)/c1ccccc1OCc1ccccc1`, -0.9%.
For the molecule `COC(=O)c1ccccc1NC(=O)CN(c1cccc(Cl)c1)S(C)(=O)=O`, the displacement worked out at 5.5%.
Turning to `O=C(N/N=C/c1ccc(Cl)cc1)c1cc(-c2ccc3ccccc3c2)n[nH]1`, the displacement was -5.4%.
The result for `CC(=O)Nc1ccc(S(=O)(=O)Nc2cccc(C)c2C)cc1` reads 12.9%; that for `C=CCc1cc(/C=C2\C(=O)NC(=O)N(c3cc(C)cc(C)c3)C2=O)cc(OC)c1OC`, -11.9%; that for `COc1cccc(CN2CCN(Cc3ccccn3)CC2)c1OC`, -2.1%.
As to `COc1ccc(C2CC(C(F)(F)F)n3nc(C(=O)N4CCN(c5ccc(F)cc5)CC4)c(Cl)c3N2)cc1` (stereo unspecified), the displacement stood at 17.2%.
`COc1cc(NC(=O)CCC(=O)O)nc(OC)n1`: the displacement turned out to be 3.7%.
For the molecule `NS(=O)(=O)c1cccc(S(=O)(=O)c2cccc(S(N)(=O)=O)c2)c1`, the displacement is -12.7%.
The result for `CCC1=NN(C(=O)c2ccc(Cl)cc2)C(O)(c2ccc(Br)cc2)C1` (stereo unspecified) reads 9.1%.
The same measure for `CCOC(=O)C1=C(c2ccccc2)OC(N)=C(C#N)C1c1cccs1` (stereo unspecified): 8.7%; for `COc1ccc2c(c1)c(=O)oc1c(C)c(OC(C)=O)ccc12`: -7.1%; for `O=C(Nc1ccccn1)c1ccc(CN(c2ccccc2)S(=O)(=O)c2ccccc2)cc1`: -4.3%.
Regarding `O=C(c1nn2c(C(F)(F)F)cc(-c3ccco3)nc2c1Cl)N1CCOCC1`, the displacement is 10.6%.
Take `Cc1cc(/C=N/NC(=O)Cc2cccc(C(F)(F)F)c2)c(C)n1-c1cccc(C(=O)O)c1`: the displacement is -4.6%.
Consider `NC(=O)C1CCN(C(=O)c2cccc(I)c2)CC1`, for which the displacement stood at 7.3%.
The same measure for `COC(=O)C1=NNC2(C)C(=O)N(c3ccccc3Cl)C(=O)C12` (stereo unspecified): -9.7%; for `CCOC(=O)C1=C(C)N=c2s/c(=C\c3ccc(C(C)=O)cc3)c(=O)n2C1c1ccccc1` (stereo unspecified): 76.2%.
The result for `Clc1ccccc1-c1nc2ccccc2c2nc3ccccc3n12` reads 9.7%; that for `CC1(C)CC(=O)C(/C=N/c2ncc(C(F)(F)F)cc2Cl)=C(O)C1`, -1.7%; that for `CC(COc1ccccc1)NC(=O)c1nn2c(C(F)(F)F)cc(-c3ccccc3)nc2c1Br` (stereo unspecified), 14.1%.
With `CC1(C)C(=O)NC(=O)N1CN1C(=O)NC(=O)C1(C)C`, the displacement was -0.9%.
Regarding `CCc1cc(C)cc(OCCOc2ccccc2/C=N/n2cnnc2)c1`, the displacement was 0%.
Take `COC(=O)c1ccc(N2C(=O)CC(Sc3n[nH]c(C)n3)C2=O)cc1` (stereo unspecified): the displacement is -6%.
The same measure for `COC(=O)c1c(NC(=O)COc2ccc(C)cc2C)sc2c1C(C(=O)OC)CC2` (stereo unspecified): 15.4%.
Take `CN(C)c1cccc2c(C(NS(=O)(=O)c3ccccc3)C(Cl)(Cl)Cl)ccc(N(C)C)c12` (stereo unspecified): the displacement came to 144%.
Turning to `O=C(Nc1ccc(OC(F)(F)C(F)F)cc1)C(c1ccccc1)c1ccccc1`, the displacement was -15.8%.
Consider `CCOC(=O)c1ccc(NC(=O)/C(C#N)=C2\NC(C)(C)Cc3ccccc32)cc1`, for which the displacement is -2.1%.
With `CC1(C)C(c2ccccc2)=NC(c2ccccc2O)N1O` (stereo unspecified), the displacement was -3.2%.
With `Cc1ccccc1N1OC2C(=O)N(c3ccccc3)C(=O)C2C1c1cccs1` (stereo unspecified), the displacement was 5.7%.
The result for `O=C(Nc1ccc(Cl)cc1)c1cc2n(n1)C(C(F)(F)F)CC(c1ccco1)N2` (stereo unspecified) reads 6.7%; that for `CCc1nnc(NC(=O)C2CCCO2)s1` (stereo unspecified), -0.3%; that for `O=C(C[n+]1ccccc1)OCC12CC3CC(CC(C3)C1)C2`, 14.4%.
On to `O=C(O)CN1C(=O)/C(=C\c2cccc(OC(=O)c3ccco3)c2)SC1=S`, for which the displacement stood at 8.8%.
Consider `Cc1no[n+]([O-])c1COc1ccc(/C=C(\C#N)C(N)=O)cc1`, for which the displacement is -1.7%.
The result for `CC1(C)CC(=O)c2cc(C(=O)NCCO)c(=O)n(-c3ccccc3)c2C1` reads 12%.
The same measure for `CCOC(=O)c1cnc2cc(-c3ccc(Cl)cc3)nn2c1C`: -9%.
Consider `O=C(COc1ccccc1[N+](=O)[O-])Nc1ccc(N2CCOCC2)cc1`, for which the displacement came to 9.6%.
Consider `CCCCOC(=O)c1ccc(NC(=O)CSc2nnc(-c3ccco3)n2-c2ccccc2)cc1`, for which the displacement was -12.3%.
For the molecule `COc1ccc(OC)c(NC(=O)C2C3C=CC(C3)C2C(=O)O)c1` (stereo unspecified), the displacement came out at 7.5%.
On to `CN1C(=O)/C(=C/c2ccc(-c3ccc(C(=O)O)cc3)o2)SC1=S`, for which the displacement came out at 1.6%.
The result for `CCNC(=O)c1ccc(CN2CCN(c3ccccc3)CC2)cc1` reads 8.2%.
For `O=C(N/C(=C/c1ccc(Br)cc1)c1nc2ccccc2[nH]1)c1ccccc1`, the displacement stood at 3.2%.
The same measure for `Cc1cc(/C=C2/SC(=O)NC2=O)c(C)n1-c1ccc(F)cc1`: 14.1%; for `CCC(C)c1ccc(OCc2nnc(NC(=O)Nc3ccccc3)s2)cc1` (stereo unspecified): 2.3%; for `CCOC(=O)c1c(NC(=O)/C=C/c2ccccc2)sc(C(C)=O)c1C`: 0%.
Consider `O=C(NCCOc1ccccc1F)c1ccc(Cl)cc1Cl`, for which the displacement was -7.2%.
The result for `O=C(NCCN1CCOCC1)/C(=C/c1ccccc1)NC(=O)c1ccccc1` reads 5.2%; that for `Cc1cccc(CN2CCN(C3CCCC3)CC2)c1`, -2.2%; that for `COc1ccc(/C(N)=N/OC(=O)Cc2ccc(OC)c(OC)c2)cc1`, 9.9%.
The result for `O=C(COc1ccc2cc(-c3nc4ccccc4s3)c(=O)oc2c1)OCc1ccccc1` reads 53.3%; that for `O=[N+]([O-])c1ccc(O)c(-c2cc(C(F)(F)F)nc(-c3ccccc3)n2)c1`, 8.4%; that for `CN1CCN(Cn2c(O)c(N=NC(=O)c3ccccc3Cl)c3ccccc32)CC1`, -6.5%.
The result for `Oc1ccc(Br)cc1C=NCc1ccco1` reads 3.3%; that for `CCOc1ccc(NC(=O)/C(=C\c2ccco2)NC(=O)c2ccc(C)cc2)cc1`, 16.9%.
For the molecule `N#CCCn1c(=S)oc2ccccc21`, the displacement is -9.3%.
The result for `O=c1[nH]c2ccc(Cl)cc2c(-c2ccccc2)c1C1=NOC(c2ccccc2)C1` (stereo unspecified) reads 12.6%; that for `Cc1[nH]n(-c2ccccc2)c(=O)c1C(c1ccccc1C(F)(F)F)c1c(C)[nH]n(-c2ccccc2)c1=O`, -4.5%.
The same measure for `COc1ccc(CN(C)C(=O)c2cccc(C(=O)N(C)Cc3ccc(OC)cc3)c2)cc1`: 10.7%; for `Cc1ccc(C(=O)N/C(=C/c2ccc(-c3ccc(Cl)cc3)o2)C(=O)NC(C)C)cc1`: 14.2%.
The result for `CC(=O)C(C(C)=O)C1=CC(=O)C(=O)c2ccccc21` reads 14.3%; that for `CCOC(=O)C1=C(N)Oc2cc(O)ccc2C1c1cccc([N+](=O)[O-])c1` (stereo unspecified), -8.6%.
Turning to `COc1ccc(Br)cc1C(=O)Nc1ccc2nn(-c3ccccc3)nc2c1`, the displacement came to 48.4%.
The same measure for `CN1CCN(Cc2c(O)ccc3c(=O)c(-c4ccc(Cl)cc4Cl)coc23)CC1`: -8.4%; for `COc1cc(/C=C2\SC(=S)N(C)C2=O)ccc1OC(=O)c1ccc(Cl)cc1`: 25.4%.
With `C/C(=N\NC(=O)c1cccc([N+](=O)[O-])c1)c1ccccn1`, the displacement amounted to 5.7%.
The result for `COc1ccc(-n2c(SCC(=O)N3CCOCC3)nc(O)c(Cc3ccccc3)c2=O)cc1` reads 1.2%; that for `O=C(CCCSc1nc2sc3c(c2c(=O)[nH]1)CCCC3)NCCO`, -7.2%; that for `O=C(CN1C(=O)c2ccccc2C1=O)Nc1cccc(-c2nc3ccccc3c(=O)o2)c1`, -11.6%.
On to `COc1ccc(/C=C/C(=O)NC(=S)Nc2ccc(I)cc2)cc1`, for which the displacement was found to be 14.3%.
Take `CC(C)c1nnc(NC(=O)Nc2ccc(Cl)c(Cl)c2)s1`: the displacement turned out to be 98.2%.
The same measure for `C=CCOc1ccc(/C=C2\C(=O)NC(=O)N(c3ccc(C)cc3)C2=O)cc1`: -10.4%.

(Values after PubChem BioAssay AID1240 (Sanford-Burnham Center for Chemical Genomics, 2008).)
